# Data taken from ChEMBL document CHEMBL1828615, “Synthesis of a series of 3,4-methanoarginines as side-chain conformationally restricted analogues of arginine” (Bioorg Med Chem, 2011).
# Columns and labels:
# [1] = tested on: N=C(N)NC[C@H]1C[C@@H]1[C@H](N)C(=O)O; assay: (§1) Activity of rat nNOS by Michaelis-Menten equation analysis
# N=C(N)NCCC[C@H](N)C(=O)O [2] = assay: as §1
# [3] = tested on: N=C(N)NC[C@H]1C[C@H]1[C@H](N)C(=O)O; assay: as §1
# [4] = tested on: N=C(N)NC[C@H]1C[C@@H]1[C@H](N)C(=O)O; assay: (§2) Ratio of Kcat to Km for rat nNOS by Michaelis-Menten equation analysis
# N=C(N)NCCC[C@H](N)C(=O)O [5] = assay: as §2
# [6] = tested on: N=C(N)NC[C@H]1C[C@H]1[C@H](N)C(=O)O; assay: as §2
substance,measurement,setting,value
Nitric oxide synthase 1 (Rattus norvegicus) (chain not printed),Km,[1],7.6 µM
same,Km,N=C(N)NCCC[C@H](N)C(=O)O [2],2.7 µM
same,Km,[3],256 µM
same,kcat/Km,[4],317000 M⁻¹ s⁻¹
same,kcat/Km,N=C(N)NCCC[C@H](N)C(=O)O [5],180000 M⁻¹ s⁻¹
same,kcat/Km,[6],8600 M⁻¹ s⁻¹
